# Hit rate of the full screen: of about 280,000 compounds, about 100 (0.036%) were called active. The shares of active, inactive and inconclusive entries below differ from those in the screen. Calls come from the whole dose curve; as a rule, active = well fitted inhibition curve with a large enough effect in the signal ratio, with a control signal flat (not every such curve was filed as active); inconclusive = small, poorly fitted or top-dose-only effect, or effect the other way, or a change in a side signal; inactive = no such curve, though single readings can be large or run the other way; the % refers to the signal ratio. A potency beside an inconclusive call is a rough fit, not a confirmed value. A note “side channel” means that the fit belongs to a control or component signal, not to the main read-out.
# Molecular target: Muscleblind-like protein 1 (Homo sapiens) (UniProt Q9NR56)
# Assay: qHTS Assay for Inhibitors of MBNL1-poly(CUG) RNA binding
# Conditions: TR-FRET MBNL1-His/biotin-(CUG)12 binding, 665/545 ratio; activity change, negative = inhibition: at 57.5 µM (top of the series)
# Procedure, shortened: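 Compound titration spanned 92 nM–58 uM against the MBNL1-His/biotin-(CUG)12 complex. After 60 min at room temperature with 5 nM streptavidin-XL665 and 0.055 ng/ul terbium anti-His, ratiometric 665/545 nm emission (Ex 340 nm) normalized to controls.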
# % is set by controls: 0 for no effect and ±100 for the full control effect; potency is the fitted concentration of half-maximal effect; tags give direction and shape of the fitted curve or compound fluorescence and quenching.
# Sequence of UniProt Q9NR56 (Q9NR56 whole entry, looked up): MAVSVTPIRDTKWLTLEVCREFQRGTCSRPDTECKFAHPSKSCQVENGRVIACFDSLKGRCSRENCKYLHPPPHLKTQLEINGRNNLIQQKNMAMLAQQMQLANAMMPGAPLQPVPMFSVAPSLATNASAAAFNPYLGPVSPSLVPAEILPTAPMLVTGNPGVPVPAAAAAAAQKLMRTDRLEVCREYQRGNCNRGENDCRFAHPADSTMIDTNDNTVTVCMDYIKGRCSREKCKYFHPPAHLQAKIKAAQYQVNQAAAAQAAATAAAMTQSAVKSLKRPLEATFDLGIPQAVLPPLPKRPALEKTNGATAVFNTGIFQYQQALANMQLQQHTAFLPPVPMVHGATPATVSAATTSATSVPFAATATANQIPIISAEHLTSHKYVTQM
Structure (SMILES),Potency,"activity change, negative = inhibition"
COc1ccc(C2=Nn3c(nnc3-c3ccco3)SC2)cc1,"inconclusive: 25.1 µM [quencher, side channel, single point]",
CC(Sc1ccccc1)C(=O)N/N=C/c1cccnc1 (stereo not given),"inconclusive: 17.8 µM [quencher, side channel, partial curve]",
O=C(Nc1ncc2c(n1)-c1ccccc1OC2)c1cccc([N+](=O)[O-])c1,"inconclusive: 3.98 µM [quencher, side channel, single point]",
COc1ccc(NC(=O)N2CCN(c3nc(-c4cccc(OC)c4)cs3)CC2)cc1,,inactive: 10.4%
COc1ccc(NC(=O)CSc2ccc(-c3sc(C)nc3C)nn2)cc1OC,"inconclusive: 14.1 µM [quencher, side channel, partial curve]",
COc1cccc(/C=C2\SC(=O)N(CCC(=O)NC3CCS(=O)(=O)C3)C2=O)c1 (stereo not given),"inconclusive: 25.1 µM [quencher, single point]",
Cc1ccc(NC(=O)c2ccc3nc[nH]c3c2)nc1,"inconclusive: 28.2 µM [quencher, side channel, single point]",
CSc1nnc(-c2cc3ccccc3cc2O)n1C,"inconclusive: 17.8 µM [quencher, side channel, partial curve, poor fit]",
CCOCCCNC(=O)c1ccc(C2SCC(=O)N2Cc2ccccc2)cc1 (stereo not given),,inactive: 3.4%
O=C(O)c1sccc1SCc1ccc(Cl)c(Cl)c1,,inactive: -9.8%
O=C1OCC/C1=C\c1ccccc1,"inconclusive: 39.8 µM [quencher, side channel, single point]",
COc1ccccc1/C=C1\Cc2ccccc2C1=O,"inconclusive: 7.08 µM [quencher, side channel, partial curve]",
Cc1cc2c(cc1C)NC1=C(N2)OC(c2cccc(O)c2)C1=O (stereo not given),"inconclusive: 31.6 µM [quencher, side channel, single point]",
CSc1ccc(S(=O)(=O)N2CCN(Cc3ccc4c(c3)OCO4)CC2)cc1,,inactive: -16.2%
C=C(C)c1cccc(C(C)(C)NC(=O)NCC2COCCO2)c1 (stereo not given),"inconclusive: 0.891 µM [fluorescent, side channel, full curve, poor fit]",
Cn1c(=O)c2[nH]c(-c3ccc(S(=O)(=O)O)cc3)nc2n(C)c1=O,"inconclusive: 39.8 µM [quencher, side channel, single point]",
O=[N+]([O-])c1ccc(C(O)CN2CCN(Cc3ccccc3)CC2)cc1 (stereo not given),,inactive: 23.9%
O=C1c2oc3ccc(Br)cc3c(=O)c2C(c2cccc(F)c2)N1CCO (stereo not given),"inconclusive: 8.91 µM [quencher, side channel, full curve]",
Cc1ccsc1/C=N/NC(=O)c1ccc([N+](=O)[O-])cc1,"inconclusive: 3.16 µM [quencher, side channel, full curve]",
O=C(O)c1cccc(Cn2c(Cl)c(/C=N/NC(=O)c3ccccc3Cl)sc2=O)c1,"inconclusive: 14.1 µM [quencher, side channel, partial curve]",

Structure (SMILES),Potency,"activity change, negative = inhibition"
C=CCOn1c(=O)c(-c2ccc(F)cc2)[n+]([O-])c2ccccc21,"inconclusive: 2.82 µM [quencher, side channel, partial curve, poor fit]",
CC(=O)N(C)C1=C(N2CCOCC2)C(=O)c2ccccc2C1=O,"inconclusive: 10 µM [quencher, side channel, partial curve]",
CC1CCN(CC(O)COCCOc2ccc(Br)cc2)CC1 (stereo not given),"inconclusive: 28.2 µM [fluorescent, side channel, partial curve]",
CN(C)c1ccc(/C=C/c2cccc[n+]2[O-])cc1,"inconclusive: 15.8 µM [quencher, side channel, partial curve]",
O=[N+]([O-])c1ccc(-c2cnc(SC(c3ccccc3)c3ccccc3)[nH]2)cc1,"inconclusive: 25.1 µM [quencher, side channel, partial curve]",
O=C(O)c1ccc2oc(=O)c(S(=O)(=O)c3ccccc3)cc2c1,"inconclusive: 15.8 µM [quencher, side channel, partial curve]",
CC(=O)C1=C(C)NC(SCC(=O)c2ccc(Cl)cc2)=C(C#N)C1CC(C)C (stereo not given),,inactive: 0.36%
NC(=O)CSc1nnc(-c2ccc(S(=O)(=O)N3CCCCC3)cc2)n1-c1ccccc1,"inconclusive: 25.1 µM [fluorescent, side channel, single point]",
O=C(c1cc2c(ccc3ccccc32)oc1=O)N1CCCC1,"inconclusive: 25.1 µM [quencher, side channel, partial curve]",
O=C(c1cc(-c2ccc(O)cc2)on1)N1CCN(c2ccc(F)cc2)CC1,,inactive: 4.9%
CCOC(=O)Cc1csc(NC(=O)c2cc(C)cc(C)c2)n1,"inconclusive: 4.47 µM [fluorescent, side channel, single point]",
COCCCNC(=O)/C(C#N)=C/c1c(N2CCN(c3ccc(OC)cc3)CC2)nc2c(C)cccn2c1=O,"inconclusive: 15.8 µM [quencher, single point]",
O=C(NC(=S)Nc1ccc(Cl)cn1)C(c1ccccc1)c1ccccc1,,inactive: -9.76%
COc1ccc(-n2cnc3ccccc3c2=O)c([N+](=O)[O-])c1,"inconclusive: 14.1 µM [quencher, side channel, partial curve]",
Cc1cc(/C=C(\C#N)C(=O)N2CCOCC2)c(C)n1C1CCCC1,"inconclusive: 28.2 µM [quencher, side channel, single point]",
NC(=O)CC(NC(=O)c1ccccc1)c1ccc(NCCN2CCOCC2)c([N+](=O)[O-])c1 (stereo not given),"inconclusive: 15.8 µM [quencher, side channel, partial curve]",
CSC(SC)=C(C#N)C(=O)c1ccccc1,"inconclusive: 158 µM [inhibitor, single point]",
CCC1C(c2ccccc2)N(C)C(c2ccccc2)CC1(O)c1ccccc1 (stereo not given),,inactive: -1.94%
Nc1[nH]n(-c2ccccc2)c(=O)c1N=Nc1ccc2ncsc2c1,"inconclusive: 10 µM [activator, partial curve]",
COc1ccc(Nc2c([N+](=O)[O-])ccc3c2=NC2(CCCCC2)N=3)cc1,"inconclusive: 10 µM [quencher, side channel, partial curve]",

Structure (SMILES),Potency,"activity change, negative = inhibition"
COC(=O)c1ccc(Sc2nnnn2-c2ccccc2)c([N+](=O)[O-])c1,"inconclusive: 15.8 µM [quencher, side channel, partial curve]",
COc1ccccc1N(C(=O)c1ccncc1)c1nc(-c2ccc([N+](=O)[O-])cc2)cs1,"inconclusive: 39.8 µM [quencher, side channel, single point]",
O=c1c2ccccc2[nH]c2ccc(F)cc12,"inconclusive: 15.8 µM [quencher, side channel, partial curve]",
N#C/C(=C\c1ccncc1)c1nc2ccccc2o1,"inconclusive: 20 µM [quencher, side channel, partial curve]",
CCOC(=O)N1CCC(NCc2c(C(=O)N(C)Cc3ccccc3)nc3ccccn23)CC1,,inactive: -0.791%
CCN(CC)c1ccc2cc(C(=O)NCc3ccc(F)cc3)c(=N)oc2c1,"inconclusive: 12.6 µM [quencher, side channel, partial curve]",
CC(=O)N1CC(C)Sc2ccc(S(=O)(=O)NCCc3cccc(C)c3)cc21 (stereo not given),,inactive: 5.27%
O=C(COC(=O)C1=Cc2ccccc2OC1)NCc1ccco1,"inconclusive: 7.08 µM [quencher, side channel, full curve]",
Cc1cc2cc(C)c(SCC(=O)NCc3ccco3)nc2cc1C,"inconclusive: 31.6 µM [fluorescent, side channel, single point]",
O=[N+]([O-])c1ccccc1-c1ccc(/C=N/n2cnnc2)o1,"inconclusive: 14.1 µM [quencher, side channel, partial curve]",
O=C(N/N=C/c1ccc(OC(=O)c2ccccc2)c([N+](=O)[O-])c1)c1ccc(O)cc1,"inconclusive: 10 µM [quencher, partial curve]",
CCOC(=O)Cc1csc(NC(=O)COc2ccc(OC)cc2)n1,,inactive: -8.9%
Cc1cccc(NS(=O)(=O)c2cccc3nsnc23)c1,"inconclusive: 11.2 µM [quencher, side channel, partial curve]",
COc1ccc(-c2cc(C(F)F)n3ncc(C(=O)N4CCN(C(=O)c5ccco5)CC4)c3n2)cc1,"inconclusive: 31.6 µM [quencher, side channel, single point]",
Cc1ccc(-c2ccc(C(=O)O)c(C)n2)cc1,,inactive: -11%
CC1(C)CC(N2CCN(CCO)CC2)=CC(=S)N1,"inconclusive: 1.12 µM [quencher, side channel, full curve]",
COc1cc(/C=C2\SC(N3CCCCC3)=NC2=O)cc(OC)c1OC,"inconclusive: 12.6 µM [quencher, side channel, partial curve]",
COC(=O)CCC(=O)OC1(C)C(=O)C2=CN(C(CO)CO)C(c3ccc(OC)cc3)=CC2=C(Br)C1=O (stereo not given),"inconclusive: 25.1 µM [quencher, side channel, single point]",
Clc1ccc(N/N=C/c2cccnc2)cc1,"inconclusive: 28.2 µM [quencher, single point]",
COc1cc(C(=O)N2CCN(c3ccccc3)CC2)c([N+](=O)[O-])cc1OC,"inconclusive: 20 µM [quencher, side channel, partial curve]",

# From PubChem BioAssay AID2675 (National Center for Advancing Translational Sciences (NCATS), 2010)
